Experimental data: PubChem BioAssay AID588855 (National Center for Advancing Translational Sciences (NCATS), 2011)
The whole screen tested about 410,000 compounds, of which about 5,000 (1.2%) were called active. Inconclusive means that the source gave no clear call. Such entries were picked first, then a sample of the others. The call rests on the fitted dose curve; in most records, active means well fitted inhibition curve with a large enough effect; inconclusive means small, poorly fitted or top-dose-only effect; inactive means no such curve, though single readings can be large or run the other way. A potency beside an inconclusive call is a rough fit, not a confirmed value.

Assay: qHTS for Inhibitors of TGF-b; further: nearly all actives have a fitted effect of over 65% in size
Details: HepG2 CAGA-GFP TGF-b/SMAD3 reporter, GFP fluorescence, 18 h, TGF-beta stimulated, 500 pg/mL final; series mostly up to 46.1 µM; activity, negative = inhibition: at the top concentration
Procedure, shortened: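 GFP signal (ex488/em500-530) from TGF-beta-stimulated HEPG2 CAGA-GFP cells, 500 pg/mL final, 18 h at 37 degrees C in DMEM plus 1% FBS, normalized to unstimulated and DMSO-stimulated controls.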
On the % scale 0 is the no-effect control and ±100 the full control effect; potency means the concentration at half of the fitted maximal effect; tags describe the fitted curve by direction and shape.

Compound	Potency	activity, negative = inhibition
Cc1cc2ccccn2c1C(C[N+](=O)[O-])c1c(F)cccc1Cl (stereo unspecified)	inconclusive: 35.5 µM [inhibitor, single point]	
CC1(C)CSC(Nc2ccc(F)c(Cl)c2)=N1		inactive: -18.6%
CCCCn1c(O)c(C(C)=NCCc2c[nH]c3ccccc23)c(=O)[nH]c1=O	inconclusive: 22.4 µM [inhibitor, single point]	
C=CCn1c(O)c(/C=C2/C=CC=N2)c(=O)[nH]c1=O	inconclusive: 35.5 µM [inhibitor, partial curve, poor fit]	
COc1cc2c3c(c1OC)-c1cc(O)ccc1CC3NCC2 (stereo unspecified)	inconclusive: 11.2 µM [inhibitor, partial curve, poor fit]	
CCc1ccc(CN2CCN(Cc3ccc(SC)cc3)CC2)cc1	inconclusive: 35.5 µM [inhibitor, partial curve, poor fit]	
O=C(Nc1ccc2c(c1)OCCO2)c1cccn(Cc2ccccc2)c1=O	inconclusive: 35.5 µM [inhibitor, single point]	
COc1cc([C@@H]2c3cc4c(c(O)c3C[C@H]3COC(=O)[C@@H]32)OCO4)cc(OC)c1OC	inconclusive: 3.55 µM [inhibitor, partial curve, poor fit]	
O=C(N/N=C/c1c(O)n(C2CCCCC2)c(=S)[nH]c1=O)c1ccccc1O	inconclusive: 3.16 µM [inhibitor, full curve, poor fit]	
O=C(Nc1ccc(Cl)cc1)Nc1ccc(Cl)c(Cl)c1	active: 3.16 µM	
Cc1ccc2c(c1)C1CN(C)CCC1N2C(=O)c1cn(-c2ccccc2)nc1-c1ccccc1 (stereo unspecified)	inconclusive: 12.6 µM [inhibitor, partial curve, poor fit]	
CC(=O)OC1CC[C@@]2(C)C(=CC(=O)C3C4CCC(OC(C)=O)[C@@]4(C)CCC32)C1 (stereo partly specified)	inconclusive: 6.31 µM [inhibitor, single point]	
Cc1ccccc1-n1c(-c2ccc([N+](=O)[O-])cc2)nc2ccccc2c1=O	inconclusive: 22.4 µM [inhibitor, single point]	
CCOC(=O)C(O)(c1ccc(NC(=O)c2ccc(Cl)c(Cl)c2)cc1)C(F)(F)F (stereo unspecified)	inconclusive: 17.8 µM [inhibitor, partial curve, poor fit]	
C=CCc1ccccc1OCCn1c(C2CC(=O)N(Cc3ccc(F)cc3)C2)nc2ccccc21 (stereo unspecified)	active: 15.8 µM	
CN(C)c1ccc(C=C2C(=O)NC(=O)NC2=O)cc1	inactive	
CCC(=NCCc1ccccc1)c1c(O)n(C)c(=O)n(C)c1=O	inconclusive: 2 µM [inhibitor, full curve]	
COc1ccc(-n2c(/C=C/c3ccc(O)c(OC)c3)nc3ccccc3c2=O)cc1		inactive: 32.7%
CCCCn1c(=O)c(C(=O)Nc2ccccc2S(N)(=O)=O)c(O)c2ccccc21	inconclusive: 35.5 µM [inhibitor, single point]	
C[C@]12CCC3C(C(=O)C[C@H]4C[C@@H](O)CC[C@]34C)C1CCC2=O (stereo partly specified)		inactive: 0%
CCCCc1ccc2[nH]cc(CCN)c2c1	inconclusive: 22.4 µM [inhibitor, single point]	

Compound	Potency	activity, negative = inhibition
O=C(Oc1ccc([N+](=O)[O-])cc1)N1CCN(/[N+]([O-])=N/Oc2ccc([N+](=O)[O-])cc2[N+](=O)[O-])CC1	inconclusive: 14.1 µM [inhibitor, single point]	
COc1cc(/C=C2\C(=O)NC(=O)N(c3ccccc3)C2=O)c([N+](=O)[O-])cc1OC	inconclusive: 35.5 µM [inhibitor, single point]	
COc1cc(OC)cc(C(=O)Nc2ccc(Br)cc2C(=O)c2ccccc2)c1		inactive: -6.4%
COc1cccc(-c2cc(C(F)(F)F)n3nc(C(=O)N4CCC5(CC4)OCCO5)cc3n2)c1	inconclusive: 1.78 µM [inhibitor, partial curve, poor fit]	
COc1nc(NC(C)C)nc(N(C#N)CN2C(=O)c3ccccc3S2(=O)=O)n1	inconclusive: 4.47 µM [inhibitor, full curve, poor fit]	
COc1ccc(-c2cc(NC=O)c3ncc(-c4cc(OC)c(OC)c(OC)c4)n3c2)c(OC)c1	inconclusive: 0.398 µM [inhibitor, full curve, poor fit]	
Cc1ccccc1N1CCN(Cc2ccc3c(c2)OCO3)CC1		inactive: -0.47%
O=C(Nc1ccccc1)NC1CC2CCC(C1)N2 (stereo unspecified)		inactive: -25.1%
Nc1c2c(nc3sc4c(c13)CCCCC4)CCCC2	active: 20 µM	
CC(C)(C#CC(=O)O)OOC(c1ccccc1)(c1ccccc1)c1ccccc1	inconclusive: 35.5 µM [inhibitor, single point]	
O=C1NC(=O)N(c2ccccc2)C(=O)/C1=C/C=C/c1ccco1	inconclusive: 35.5 µM [inhibitor, single point]	
COC(=O)C1=C(C(=O)OC)C2OC1c1cc3ccccc3cc12	inconclusive: 1.12 µM [inhibitor, full curve, poor fit]	
Cc1cccc(C(=O)Nc2nnc(SCC(=O)NCc3ccco3)s2)c1	inconclusive: 14.1 µM [inhibitor, single point]	
Cc1ccc(-c2nnc(Nc3ccc(O)cc3)c3ccccc23)cc1S(=O)(=O)N1CCOCC1	inconclusive: 11.2 µM [inhibitor, partial curve, poor fit]	
Cc1ccc(Nc2nnc(-c3ccc(C)c(S(=O)(=O)NCc4nc5ccccc5[nH]4)c3)c3ccccc23)cc1	inconclusive: 3.55 µM [inhibitor, full curve, poor fit]	
COC(/C(C)=C/C=C/C(C)=C/c1coc(C)n1)C(C)C1CC(O)C2(C)OC2C=CC(C)C2CC(CC(=O)O2)CC2OC2C(=O)O1 (stereo unspecified)	inconclusive: 0.0891 µM [inhibitor, full curve, poor fit]	
CCC(c1nnnn1C(C)(C)C)N1CCC2(CC1)C(=O)NCN2c1ccccc1 (stereo unspecified)	inconclusive: 35.5 µM [inhibitor, single point]	
Clc1ccc(CCC(Cn2ccnc2)Sc2c(Cl)cccc2Cl)cc1 (stereo unspecified)	inconclusive: 35.5 µM [inhibitor, single point]	
COc1ccc(OCC(=O)N2CCN(C/C=C/c3ccccc3)CC2)cc1		inactive: -16%
Nc1c(C(=O)OCc2ccccc2)c2nc3ccccc3nc2n1Cc1cccs1	inconclusive: 22.4 µM [inhibitor, single point]	
COc1ccccc1CNC(=O)CCC1N=C2c3ccccc3N=C(SCc3cccc(Cl)c3)N2C1=O (stereo unspecified)	inconclusive: 5.62 µM [inhibitor, partial curve]	

Compound	Potency	activity, negative = inhibition
COc1ccc(S(=O)(=O)NC(CC(=O)N2CCc3ccccc32)c2ccco2)cc1 (stereo unspecified)	inconclusive: 31.6 µM [inhibitor, partial curve, poor fit]	
COc1ccc(C(c2c(O)c3ccccc3oc2=O)c2c(C)n(C)n(-c3ccccc3)c2=O)cc1 (stereo unspecified)	inconclusive: 28.2 µM [inhibitor, single point]	
N#Cc1cc2c(nc1SCC(=O)Nc1cccc(C(F)(F)F)c1)C1CCN2CC1		inactive: 1.5%
COc1cc2nc(N3CCCN(C)CC3)nc(N(C)C3CCN(C)CC3)c2cc1OC	inconclusive: 35.5 µM [inhibitor, single point]	
COc1ccc(NC(=O)CCn2cc(C)c3ccccc32)cc1	inconclusive: 1.41 µM [inhibitor, partial curve, poor fit]	
O=C(NCc1cccs1)c1ccc(Br)o1	inconclusive: 6.31 µM [inhibitor, single point]	
COc1cc2[nH]c(=O)n(CCCCCC(=O)N3CCN(c4cccc(C(F)(F)F)c4)CC3)c(=O)c2cc1OC	inconclusive: 5.01 µM [inhibitor, partial curve, poor fit]	
CCOC(=O)c1cccc(C2=C(CNC(=O)c3ccc([N+](=O)[O-])cc3)[C@H]3CC[C@@H](C2)N3Cc2ccccc2)c1	inconclusive: 35.5 µM [inhibitor, single point]	
Fc1ccc2c(c1)nnn2C1CCN(Cc2nnnn2C2CCCCC2)CC1		inactive: -5.84%
Cc1c2ccncc2c(C)c2c1[nH]c1ccccc12	inconclusive: 35.5 µM [inhibitor, single point]	
CC[C@@]1(O)C(=O)OCc2c1cc1n(c2=O)Cc2cc3c(NC(=O)CN)cccc3nc2-1	inconclusive: 35.5 µM [inhibitor, single point]	
CCn1c(O)c(/C=N/NC(=O)c2ccncc2)c(=O)[nH]c1=S	inconclusive: 4.47 µM [inhibitor, partial curve, poor fit]	
Cc1nn(C)c(C)c1C1C(C#N)=C(N)Oc2n[nH]c(C)c21 (stereo unspecified)	inconclusive: 5.62 µM [inhibitor, full curve, poor fit]	
CCc1ccc(-n2nc(C)c3c2NC(=O)CSC3c2ccccc2C)cc1 (stereo unspecified)	inconclusive: 11.2 µM [inhibitor, partial curve]	
COC(=O)C1=C(c2ccc(F)cc2OCc2ccccc2)C[C@@H]2CC[C@H]1N2C(=O)NCc1cccc(F)c1		inactive: -1.33%
c1cc(CCN2CCCC2)ccn1		inactive: -10.7%
COC(=O)C1=C(c2ccccc2OCc2ccccc2)C[C@@H]2CC[C@H]1N2C(=O)NCCc1ccc(F)cc1	inconclusive: 35.5 µM [inhibitor, single point]	
COC(=O)C1=C(c2ccc(-c3ccccc3)c(F)c2)C[C@@H]2CC[C@H]1N2C(=O)NCCCOC(C)C	inconclusive: 20 µM [inhibitor, single point]	
CC(C(O)c1ccccc1)N(C)CCn1cnc2c1c(=O)n(C)c(=O)n2C (stereo unspecified)	inconclusive: 5.62 µM [inhibitor, partial curve, poor fit]	
